Assay results reported in PubChem BioAssay AID504832 (National Center for Advancing Translational Sciences (NCATS), 2011).
About 18,000 (5.8%) of roughly 310,000 compounds were called active. Inconclusive means that the source gave no clear call. Such entries were picked first, then a sample of the others. The call rests on the fitted dose curve; in most records, active means well fitted inhibition curve with a large enough effect; inconclusive means small, poorly fitted or top-dose-only effect, or another doubt; inactive means no such curve, though single readings can be large or run the other way. No potency is given beside an inconclusive call; the fits are too rough.

Test: Primary qHTS for delayed death inhibitors of the malarial parasite plastid, 48 hour incubation
Conditions: P. falciparum luciferase growth in erythrocytes; series mostly up to 28.7 µM
Method in brief: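 Read-out is firefly luciferase luminescence from an integrated reporter in P. falciparum, so falling signal marks reduced parasite growth. Infected erythrocytes were at 2% hematocrit and 0.1% parasitemia (final) in Albumax-supplemented RPMI 1640.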
Potency means the concentration at half of the fitted maximal effect; tags describe the fitted curve by direction and shape.

SMILES	Potency
Cn1nc(C(C)(C)C)cc1C(=O)O	inactive
O=C(COc1ccc(-c2ccccc2)cc1)N1CCCC1	inconclusive [inhibitor, partial curve]
CCN(CC)CCn1c(=O)n(-c2ccc(Cl)cc2)c(=O)c2c3c(sc21)CN(C)CC3	active: 4.65 µM
Cc1cccc(NC(=O)c2ccccc2O)c1C	inconclusive [inhibitor, single point]
c1ccc(-c2cccs2)nc1	inconclusive [inhibitor, single point]
Cc1ccc(C(=O)CCCn2nnc(-c3cccnc3)n2)cc1C	inactive
CC(C)(C)CC(=O)Nc1ccc(S(=O)(=O)N2CCCC2)cc1	inconclusive [inhibitor, partial curve, poor fit]
C=CCSc1cc(C)nc2c(-c3ccccc3)c(C)nn12	inconclusive [inhibitor, partial curve, poor fit]
OCCN(Cc1ccccc1)Cc1ccccc1O	active: 4.15 µM
Cn1c(N)c(C(=O)CSc2nnc(C3CC3)n2-c2ccccc2)c(=O)n(C)c1=O	inconclusive [inhibitor, single point]
Cc1ccc(NC(=O)C(C)C(=O)Nc2ccc(C)cc2)cc1	inactive
O=C(c1ccc(NS(=O)(=O)c2ccc(F)cc2)cc1)N1CCN(c2ccccc2O)CC1	inconclusive [inhibitor, partial curve]
CCNC(=O)c1ccc(-n2nc(C)cc2-c2ccccc2)cc1	inconclusive [inhibitor, full curve]
COc1cc2[nH]c(C(=O)NCC3CCCO3)cc2c(OC)c1OC (centres undefined)	inactive
CCOC(=O)C1(Cc2cccc(Cl)c2)CCCN(C2CCN(C(C)=O)CC2)C1 (centres undefined)	inconclusive [inhibitor, full curve, poor fit]
CCOC(=O)c1c(N)n(Cc2ccccc2)c2nc3ccccc3nc12	active: 9.28 µM
c1ccc(-c2ccc3c(c2)NC(C2Nc4cc(-c5ccccc5)ccc4O2)O3)cc1 (centres undefined)	inconclusive [inhibitor, full curve, poor fit]
Cc1cc(C(=O)OCC(=O)N2CC(C)OC(C)C2)c(C)n1-c1ccccc1 (centres undefined)	inconclusive [inhibitor, single point]
COc1ccc(/C=N/N2CCN(Cc3ccc(C)cc3)CC2)cc1Br	inconclusive [inhibitor, single point]
CCCCN(CCCC)CCCNC(=O)CN1C(=O)COc2ccc(S(=O)(=O)N3CCC(C)CC3)cc21	inconclusive [inhibitor, single point]
COC(=O)C1=C(C)NC(=O)NC1/C=C/c1ccccc1 (centres undefined)	inconclusive [inhibitor, partial curve, poor fit]
COC(=O)C1=C(c2ccc(F)cc2OCc2ccccc2)C[C@@H]2CC[C@H]1N2C(=O)NCc1ccc(Br)cc1	active: 2.08 µM

SMILES	Potency
O=C(Nc1ccc(Cl)cc1)Nc1ccccc1Sc1ncc([N+](=O)[O-])s1	active: 2.62 µM
CCCC(=O)N1N=C(c2ccccc2)CC1c1cn(C)c2ccccc12 (centres undefined)	inconclusive [inhibitor, single point]
CCOc1ccc(N(C(=O)CNC(=O)c2cccs2)C(C(=O)NCC2CCCO2)c2ccc(OC)c(OC)c2)cc1 (centres undefined)	active: 9.28 µM
CSc1nn(CCc2ccncc2)c(=S)s1	inconclusive [inhibitor, single point]
COc1ccc(-c2nn(C)c(=O)c3ccccc23)cc1NC(=O)COc1ccccc1	inconclusive [inhibitor, partial curve]
Fc1ccc(NC(=S)Nc2cccnc2)c(Cl)c1	inactive
Nc1[nH]n2c(=O)cc(-c3ccccc3)nc2c1N=Nc1ccccc1	inconclusive [inhibitor, single point]
Cc1cc(C)c(S(=O)(=O)N2CCN(S(=O)(=O)N3CCC(C)CC3)CC2)c(C)c1	inconclusive [inhibitor, partial curve, poor fit]
O=C(CCCN1C(=O)/C(=C/c2ccccc2Cl)SC1=S)NNC(=O)c1ccc(Cl)cc1Cl	inconclusive [inhibitor, single point]
COc1cc(C(=O)N/N=C/c2ccc3c(c2)c2ccccc2n3C)ccc1O	active: 4.65 µM
COc1ccc(S(=O)(=O)N(CC(=O)N2CCOCC2)c2cc(Cl)ccc2OC)cc1OC	inconclusive [inhibitor, single point]
C=CCCC(=O)N1CCC(n2nccc2NC(=O)c2ccccc2C)CC1	inactive
CC1Sc2ccc(C(=O)N3CCCC(C(F)(F)F)C3)cc2NC1=O (centres undefined)	inconclusive [inhibitor, full curve, poor fit]
Cc1ccc(-n2cc(CNCCCn3ccnc3C)c(-c3ccc(F)cc3)n2)cc1	active: 2.33 µM
Cc1ccc(C)c(NC(=S)NCCSc2ccc(Cl)cc2)c1	inconclusive [inhibitor, partial curve]
O=C(CSc1nc2ccccc2c(=O)n1Cc1ccccc1)NCc1ccco1	inactive
COC(=O)c1ccccc1NC(=S)N(Cc1ccc2c(c1)OCO2)Cc1cc2cc(OC)ccc2[nH]c1=O	inconclusive [inhibitor, single point]
Cc1sc(NC(=O)c2ccco2)c(C(c2cccnc2)N2CCN(c3ccc(F)cc3)CC2)c1C (centres undefined)	active: 2.08 µM
COc1ccc(OC)c(-c2nc3cc4ccccc4cc3nc2-c2ccccc2)c1	inconclusive [inhibitor, single point]
CCN(c1ccc(NC(=O)c2ccc(N3CCCC3=O)cc2)cc1)C(C)C	inconclusive [inhibitor, partial curve, poor fit]
CCc1cccc(NC(=S)N2CCC(c3ccccc3)C2)c1 (centres undefined)	inactive
CCN1CCN(c2ccc(S(=O)(=O)N3CCCCC3)cc2NC(=O)COc2cc(C)ccc2Cl)CC1	active: 11.7 µM
